Our source for the binding values is publication PMC6422069.

These are yes or no findings as the source states them, for the method shown. Binding seen in cells or lysates may run through a third protein. Some binding calls cover weakened binding; strength is not graded here.

Common to all, as to assay: co-IP; LUMIER assay: protein A fusion (bait) and Renilla luciferase fusion (prey) co-transfected in HEK-293T cells, lysed after 24 h (PBS pH 7.4, 1% Triton X-100, 0.1% BSA, 1 mM DTT, benzonase), bait precipitated on anti-protein A magnetic beads for 90 min at 4 °C, six washes, bound luciferase activity read; robust Z-scores; in quadruplicate
For test [1], the target named is T1, MNV NS7 (murine norovirus MNV-1 (strain CW1)) (UniProt Q80J95).
T1 sequence: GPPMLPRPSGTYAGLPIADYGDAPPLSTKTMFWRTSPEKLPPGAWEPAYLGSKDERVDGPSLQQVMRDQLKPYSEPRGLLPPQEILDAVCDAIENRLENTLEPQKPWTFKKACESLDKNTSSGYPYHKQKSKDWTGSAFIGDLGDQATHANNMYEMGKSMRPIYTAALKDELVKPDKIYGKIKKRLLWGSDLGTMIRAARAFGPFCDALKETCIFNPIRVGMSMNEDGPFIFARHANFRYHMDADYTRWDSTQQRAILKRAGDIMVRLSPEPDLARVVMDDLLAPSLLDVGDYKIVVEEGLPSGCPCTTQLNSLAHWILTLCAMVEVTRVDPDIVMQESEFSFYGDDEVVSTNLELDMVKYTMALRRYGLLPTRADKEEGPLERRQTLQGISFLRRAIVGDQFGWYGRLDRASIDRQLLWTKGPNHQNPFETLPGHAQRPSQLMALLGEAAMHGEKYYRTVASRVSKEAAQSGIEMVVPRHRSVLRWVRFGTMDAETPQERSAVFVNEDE

Test [2] addresses MNV NS3 (murine norovirus MNV-1 (strain CW1)) (UniProt Q80J95).
Test [3] deals with MNV NS1/2 (murine norovirus MNV-1 (strain CW1)) (UniProt Q80J95).
In test [4] the target is MNV NS4 (murine norovirus MNV-1 (strain CW1)) (UniProt Q80J95).
The target of test [5] is MNV NS5 (murine norovirus MNV-1 (strain CW1)) (UniProt Q80J95).

Turning to MNV NS1/2 (from UniProt Q80J95 1-341), the binding entry in test [1], in test [2], in test [3] and in test [4] was “binds” in each case.

As to MNV NS3 (from UniProt Q80J95 342-705), the binding entry in test [2] and in test [4] was “binds” each time.

MNV NS4 (from UniProt Q80J95 706-870): in test [4], the binding result is on record as “binds”.

For the molecule MNV NS5 (from UniProt Q80J95 871-994), the binding result in test [1] is “binds”.

B1: MNV NS7 (enzyme, UniProt Q80J95 1178-1687)
chain: T1 sequence
On to B1, for which the binding result in test [1] is given as “binds”.

B2: MNV NS6 (enzyme, UniProt Q80J95 995-1177)
chain: APVSIWSRVVQFGTGWGFWVSGHVFITAKHVAPPKGTEIFGRKPGDFTVTSSGDFLKYYFTSAVRPDIPAMVLENGCQEGVVASVLVKRASGEMLALAVRMGSQAAIKIGSAVVHGQTGMLLTGSNAKAQDLGTIPGDCGCPYVYKKGNTWVVIGVHVAATRSGNTVIAATHGEPTLEALEFQ
As to B2, the binding result in test [5], in test [1], in test [2], in test [3] and in test [4] was “no binding” each time.
